Screen size: about 310,000 compounds; about 2,200 (0.71%) showed an effect of 50% or more. Effects have a minus sign here. The list shows a part of the results.
Target: human ether-à-go-go-related gene (hERG) potassium channel (human, UniProt Q12809)
Assay: primary screen, population patch clamp on CHO cells stably expressing hERG

human ether-à-go-go-related gene (hERG) potassium channel, sequence (Q12809 whole entry, looked up): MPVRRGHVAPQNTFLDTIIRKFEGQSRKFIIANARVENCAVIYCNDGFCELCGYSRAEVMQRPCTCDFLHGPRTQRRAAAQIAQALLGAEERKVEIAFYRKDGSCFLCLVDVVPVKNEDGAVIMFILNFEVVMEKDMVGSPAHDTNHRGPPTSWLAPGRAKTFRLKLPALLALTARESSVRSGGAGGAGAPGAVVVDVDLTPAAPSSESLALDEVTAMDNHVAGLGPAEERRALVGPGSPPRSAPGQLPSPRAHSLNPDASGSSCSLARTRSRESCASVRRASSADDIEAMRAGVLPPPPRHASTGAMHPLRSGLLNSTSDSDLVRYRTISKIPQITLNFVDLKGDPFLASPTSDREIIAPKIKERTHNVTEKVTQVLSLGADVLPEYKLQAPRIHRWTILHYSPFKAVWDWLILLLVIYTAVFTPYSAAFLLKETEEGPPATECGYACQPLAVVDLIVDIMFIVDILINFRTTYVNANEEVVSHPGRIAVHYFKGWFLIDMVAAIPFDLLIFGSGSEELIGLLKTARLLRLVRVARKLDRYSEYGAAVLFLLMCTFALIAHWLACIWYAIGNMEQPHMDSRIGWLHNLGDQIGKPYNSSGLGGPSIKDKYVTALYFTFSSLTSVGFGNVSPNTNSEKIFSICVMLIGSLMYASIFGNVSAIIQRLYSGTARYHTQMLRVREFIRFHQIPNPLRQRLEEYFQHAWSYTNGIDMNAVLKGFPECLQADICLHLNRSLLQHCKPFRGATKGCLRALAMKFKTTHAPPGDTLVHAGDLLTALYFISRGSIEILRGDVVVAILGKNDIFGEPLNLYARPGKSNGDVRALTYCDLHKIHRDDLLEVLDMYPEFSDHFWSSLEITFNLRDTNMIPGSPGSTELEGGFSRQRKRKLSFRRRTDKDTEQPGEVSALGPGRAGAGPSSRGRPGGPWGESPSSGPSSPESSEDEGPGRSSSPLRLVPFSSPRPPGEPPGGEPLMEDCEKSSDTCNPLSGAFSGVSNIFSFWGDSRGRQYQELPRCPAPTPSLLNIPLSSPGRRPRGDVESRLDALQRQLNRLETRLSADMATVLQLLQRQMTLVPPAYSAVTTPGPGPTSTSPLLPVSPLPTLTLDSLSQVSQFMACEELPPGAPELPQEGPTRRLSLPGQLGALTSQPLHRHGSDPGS

| Compound | hERG current change (%, negative = inhibition) at 1uM [%] |
| --- | --- |
| N#CC1(c2ccccc2)CCC(=NNS(=O)(=O)c2ccccc2)CC1 (centres unmarked) | 0.194 |
| COc1ccc(C(=O)Nc2ccnn2C2CCN(Cc3cnn(C)c3)CC2)cc1 | 16.9 |
| O=C(COC(=O)C1CCC1)NC(=O)c1ccccc1 | 15.6 |
| COc1ccc(C2c3c(-c4ccccc4O)n[nH]c3C(=O)N2CCc2ccc(OC)c(OC)c2)cc1 (centres unmarked) | -2.59 |
| O=C(OCc1cc(=O)n2cc(Br)ccc2n1)C1COc2ccccc2O1 (centres unmarked) | 9.32 |
| CCOC(=O)CN1C(=O)C(=O)N(Cc2c(F)cccc2Cl)C1=O | 15.6 |
| COc1ccc(OC)c(NC(=O)N2CCCC(C(=O)c3ccccc3OC)C2)c1 (centres unmarked) | 12.1 |
| Cc1ccc(-c2nc3sc4c(c3c(=O)n2N)CCCC4)cc1 | 4.46 |
| CCOC(=O)Nc1cc(C)c(Cl)cc1OC | 9.73 |
| COCCCn1nnnc1SCC(=O)Nc1nc(C)c(C)s1 | 9.16 |
| CC(C)Cc1csc(NC(=O)c2ccc(F)cc2)c1C(=O)O | 3.83 |
| COc1ccccc1NC(=O)C(C)OC(=O)CC1CCCCC1 (centres unmarked) | 8.31 |
| O=C1CCSc2ccc(Cl)cc2N1Cc1ccccc1 | 7.91 |
| CC12CCC(C(=O)Nc3cc(Cl)ccc3Cl)(C(Br)C1=O)C2(C)C (centres unmarked) | 4.75 |
| CC1=NNC(=O)C1C(c1cccc(O)c1)C(C#N)C#N (centres unmarked) | 12.3 |
| CC1=C(C)[N+](=O)C2CCCCC2N1[O-] (centres unmarked) | -5.54 |
| O=C(c1ccc(-c2ccc(Cl)cc2)o1)N1CCN(c2ccc([N+](=O)[O-])cc2Cl)CC1 | 2.72 |
| Cc1cccc(NC(=O)c2cccnc2)c1 | 12.3 |
| COC(=O)CCCC1=CC2=CC(=O)C(C)(OC(=O)CCc3ccccc3)C(=O)C2=CO1 (centres unmarked) | 9.14 |
| CC(C)OP(=O)(c1ccc(N(C)C)cc1)C(Nc1ccccc1)c1cccnc1 (centres unmarked) | 2.08 |
| O=C1NCCCC1C(=O)Nc1ccccn1 (centres unmarked) | 18.8 |
| N=c1c(S(=O)(=O)c2ccccc2)cc2c(=O)n3ccccc3nc2n1CC1CCCO1 (centres unmarked) | -17 |
| CC1CC(NC(=O)c2c(O)nc3sccn3c2=O)CC(C)(C)C1 (centres unmarked) | 15.9 |
| NC(=O)c1oc2ccccc2c1NC(=O)CN1CCCCC1 | 16.2 |
| C/C(=N\NC(=O)CC1N=C(Cc2ccccc2)NNC1=O)c1ccncc1 (centres unmarked) | 12.9 |
| CN1CCN(S(=O)(=O)c2ccc(NCc3ccc4c(c3)OCO4)nc2)CC1 | 10.3 |

From paper PMC4336329 (PLoS ONE, 2015)
